Drawing on patent publication US20160207995A1, this text covers IC50 of TF-1 proliferation inhibition assay (IL-4 + IL-13) for two molecules.

For this experiment, the target named is human IL-4 + human IL-13 (both cytokines added together). In words: cell-based or functional assay.

B1: anti-IL-4/IL-13 IgG1 bispecific antibody (knobs-into-holes) (bispecific antibody)
heavy 1: EVQLVESGGGLVQPGGSLRLSCAASGYTFTDYSMHWVRQAPGKGLEWVVWINTETGEPTYADSVKGRFTISLDNSKNTAYLQMNSLRAEDTAVYYCARGGIFYGMDYWGQGTLVTVSSASTKGPSVFPLAPSSKSTSGGTAALGCLVKDYFPEPVTVSWNSGALTSGVHTFPAVLQSSGLYSLSSVVTVPSSSLGTQTYICNVNHKPSNTKVDKKV[human IgG1 Fc with changes not printed]
light 1: DIQMTQSPSSLSASVGDRVTITCKASQSVINDAAWYQQKPGKAPKLLIYYTSHRYTGVPSRFSGSGSGTDFTLTISSLQPEDFATYYCQQDYTSPWTFGQGTKVEIKRTVAAPSVFIFPPSDEQLKSGTASVVCLLNNFYPREAKVQWKVDNALQSGNSQESVTEQDSKDSTYSLSSTLTLSKADYEKHKVYACEVTHQGLSSPVTKSFNRGEC
heavy 2: EVTLRESGPALVKPTQTLTLTCTVSGFSLSAYSVNWIRQPPGKALEWLAMIWGDGKIVYNSALKSRLTISKDTSKNQVVLTMTNMDPVDTATYYCAGDGYYPYAMDNWGQGSLVTVSSASTKGPSVFPLAPSSKSTSGGTAALGCLVKDYFPEPVTVSWNSGALTSGVHTFPAVLQSSGLYSLSSVVTVPSSSLGTQTYICNVNHKPSNTKVDKKV[human IgG1 Fc with changes not printed]
light 2: DIVLTQSPDSLSVSLGERATINCRASKSVDSYGNSFMHWYQQKPGQPPKLLIYLASNLESGVPDRFSGSGSGTDFTLTISSLQAEDVAVYYCQQNNEDPRTFGGGTKVEIKRTVAAPSVFIFPPSDEQLKSGTASVVCLLNNFYPREAKVQWKVDNALQSGNSQESVTEQDSKDSTYSLSSTLTLSKADYEKHKVYACEVTHQGLSSPVTKSFNRGEC
Turning to B1, the IC50 of TF-1 proliferation inhibition assay (IL-4 + IL-13) turned out to be 0.07 µg/mL.

B2: anti-IL-4/IL-13 IgG4 bispecific antibody (knobs-into-holes, S228P, wild-type R409) (bispecific antibody)
heavy 1: EVQLVESGGGLVQPGGSLRLSCAASGYTFTDYSMHWVRQAPGKGLEWVVWINTETGEPTYADSVKGRFTISLDNSKNTAYLQMNSLRAEDTAVYYCARGGIFYGMDYWGQGTLVTVSSASTKGPSVFPLAPCSRSTSESTAALGCLVKDYFPEPVTVSWNSGALTSGVHTFPAVLQSSGLYSLSSVVTVPSSSLGTKTYTCNVDHKPSNTKVDKRVESKYGPPCPPCPAPEFLGGPSVFLFPPKPKDTLMISRTPEVTCVVVDVSQEDPEVQFNWYVDGVEVHNAKTKPREEQFNSTYRVVSVLTVLHQDWLNGKEYKCKVSNKGLPSSIEKTISKAKGQPREPQVYTLPPSQEEMTKNQVSLSCAVKGFYPSDIAVEWESNGQPENNYKTTPPVLDSDGSFFLVSRLTVDKSRWQEGNVFSCSVMHEALHNHYTQKSLSLSLGK
light 1: B1 light 1
heavy 2: EVTLRESGPALVKPTQTLTLTCTVSGFSLSAYSVNWIRQPPGKALEWLAMIWGDGKIVYNSALKSRLTISKDTSKNQVVLTMTNMDPVDTATYYCAGDGYYPYAMDNWGQGSLVTVSSASTKGPSVFPLAPCSRSTSESTAALGCLVKDYFPEPVTVSWNSGALTSGVHTFPAVLQSSGLYSLSSVVTVPSSSLGTKTYTCNVDHKPSNTKVDKRV[human IgG4 Fc with S228P T366W (EU numbers) not printed]
light 2: B1 light 2
B2: the IC50 of TF-1 proliferation inhibition assay (IL-4 + IL-13) came to 0.05 µg/mL.
